Measured values reported in the supplement of paper PMC3334620.
Over roughly 33,000 sequences, “E-score (-0.5 to 0.5)” has its median near -0.056; the highest 2% begin near 0.38. This is one part of the list.

What follows are sequences tested against Stb4 (UniProt P50104) (assay: PBM E-score (8-mer binding enrichment) (E-score (-0.5 to 0.5)); higher = stronger / more preferred TF binding; most listed sequences are background and not binding sites). Conditions: protein concentration: 200 nM; construct: GST-DNA-binding domain.
Procedure, shortened: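 Yeast transcription factors, full-length or as DNA-binding domains, were expressed with a GST tag using PURExpress in vitro transcription/translation. At about 100-200 nM they were applied to universal all-10-mer Agilent arrays, double-stranded by primer extension on fresh or once-stripped slides. Fluorescent anti-GST detected bound protein, and masliner normalised the scans. E-scores for ungapped eight-base words, pooled with reverse complements, came from the Universal PBM Analysis Suite.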

Sequence	PBM E-score
TAGGCGAA	-0.331
AGGACCTA	0.00979
AACAACGA	-0.133
CAGGGCGG	0.0304
AATGACAA	-0.0973
AGGTCACA	-0.146
GCGGTCAC	0.052
AGCGTCGG	0.305
TAATACCA	-0.00115
ACAGAGAG	-0.234
AACTTCTA	-0.223
CCAGTTTA	-0.14
ACGAGACC	-0.0429
CGCAGGCG	-0.12
AGCGATAG	-0.175
CCATGTTA	-0.177
CCTCGTAA	-0.0164
CTTTGAAA	-0.226
TCAGTCCA	-0.185
GCTGTCCA	-0.0665
AAGCTAGT	-0.189
AACCAATT	-0.0719
AACCGCTA	-0.134
CGTCAAAC	0.0267

Sequence	PBM E-score
ATCAATAA	-0.101
AAGTCGAA	-0.279
CGCTGCGC	-0.0608
ATCTCGCC	0.0501
TCCGGCCA	0.287
ATACGTTG	-0.277
CGCATCAC	-0.0184
CATGTCGA	-0.0821
TAATTTGA	-0.151
TACTTATA	-0.0844
AAAGATCT	-0.178
AAACCTTT	0.046
CCAGTTCC	0.224
TATAGCCA	-0.113
CGGCGGCA	0.179
CGGCAGTC	0.31
CGATGTTC	0.117
GGTCCGGA	0.34
GAACAAGA	0.0889
GCGGCGCA	-0.0865
ATTGGTGC	0.0227
CTATACAA	-0.235
TAATAATA	-0.144
CGGAGCGC	0.202

Sequence	PBM E-score
GTTCTGAA	-0.216
CAGCACCA	-0.0655
TAGGCTCA	-0.184
CAGATCCG	0.416
AAATAGCC	0.141
CACAACTG	-0.216
GGCAGCAC	-0.139
CTTGGAAC	-0.0942
CATTATCC	0.21
CACGGTAC	0.0444
GCGTTCTA	0.00522
AAAGATGG	-0.159
GAAGTATA	0.139
GAGCATGA	-0.195
CCTGCACC	-0.0562
TCTTGACA	-0.0935
ACTAAGTG	-0.0548
CGGTCTAA	0.0119
CGGGCGTA	0.079
GAGGAGCA	0.0497
ATCGTTTC	-0.0895
CCAGAACA	-0.0874
AAAACTAG	-0.0234
GCAAAGCC	-0.177

Sequence	PBM E-score
AACCTGGT	0.052
ACTAGCCT	-0.121
ACCAGGAA	-0.0286
ACACCCCT	0.142
CAATCTGA	-0.0386
CAGCTCAC	-0.188
CTTTGTCC	-0.00211
ACCCCGCC	0.227
ACCAACAG	0.00557
CCCGCCCA	0.229
CTCCATGC	-0.166
AAATGCTT	-0.0856
AATCCGCC	0.218
CCGATCGG	0.373
TCAGCACA	-0.223
ACGGATGA	0.316
ATCCAGAT	-0.0692
ACGTTAGT	-0.131
CCCCTTCA	-0.237
GGCTAGGA	-0.158
GTTCGGAA	0.474
GCGTACCA	-0.227
